{"source": "paper PMC6919601", "about": "“Identification of Plasmodium dipeptidyl aminopeptidase allosteric inhibitors by high throughput screening” (PLoS ONE, 2019)", "note": "Out of some 110,000 compounds screened, about 230 (0.21%) showed an effect of 50% or more. This is one part of the list.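 Also: 30 min substrate incubation versus DMSO and 10 µM JCP410 controls.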", "data": [{"biological_target": "DPAP1 (Plasmodium falciparum, UniProt Q8IIJ9)", "sequence (Q8IIJ9 whole entry, looked up)": "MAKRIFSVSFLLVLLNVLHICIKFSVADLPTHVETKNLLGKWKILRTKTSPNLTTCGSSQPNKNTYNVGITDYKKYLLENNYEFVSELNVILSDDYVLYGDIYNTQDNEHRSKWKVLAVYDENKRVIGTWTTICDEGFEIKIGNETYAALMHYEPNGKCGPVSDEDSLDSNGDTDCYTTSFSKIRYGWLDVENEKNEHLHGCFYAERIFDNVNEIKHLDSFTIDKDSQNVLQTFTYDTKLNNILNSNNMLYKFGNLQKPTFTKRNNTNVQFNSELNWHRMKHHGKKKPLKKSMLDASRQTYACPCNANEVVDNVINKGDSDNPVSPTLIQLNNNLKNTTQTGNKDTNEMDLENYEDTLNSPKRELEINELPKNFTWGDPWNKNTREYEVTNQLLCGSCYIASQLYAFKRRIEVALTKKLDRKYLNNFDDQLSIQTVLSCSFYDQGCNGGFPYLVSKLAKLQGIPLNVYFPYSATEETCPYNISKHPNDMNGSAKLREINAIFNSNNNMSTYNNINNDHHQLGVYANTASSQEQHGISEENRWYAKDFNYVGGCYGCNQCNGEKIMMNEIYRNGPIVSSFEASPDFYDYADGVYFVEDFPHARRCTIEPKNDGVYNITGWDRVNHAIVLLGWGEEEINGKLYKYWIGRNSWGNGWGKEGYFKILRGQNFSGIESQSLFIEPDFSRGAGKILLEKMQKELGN", "assay": "primary screen, percent inhibition; read by cleavage of a fluorogenic dipeptide substrate; higher = more effect of the substance", "parameters": "species or system P. falciparum D10 trophozoite lysates; single well", "units": {"% Inhibition @ 10 uM": "%"}, "values": [{"compound": "Cc1cc2c(c(C)nn2-c2ccccc2)c(=O)o1", "% Inhibition @ 10 uM": 0.219}, {"compound": "CC(C)(C)C(=O)NCc1nc(-c2ccc(Cl)cc2)no1", "% Inhibition @ 10 uM": 2.14}, {"compound": "COc1ccccc1C1=N/C(=C\\c2ccc(C)cc2)C(=O)O1", "% Inhibition @ 10 uM": 1.59}, {"compound": "CCC(C)Cn1c(CNC(=O)c2ccccc2)nc2ccccc21", "note": "(stereo not shown)", "% Inhibition @ 10 uM": 3.81}, {"compound": "Cc1ccnc(NC(=O)c2ccc(Cl)cc2Cl)c1", "% Inhibition @ 10 uM": -7.34}, {"compound": "CN(C)c1nc(NCc2ccccc2)nc(Oc2ccc(O)nn2)n1", "% Inhibition @ 10 uM": -2.75}, {"compound": "CCN(CC)CCCNC(=O)C1CCN(c2nnc(C)c3c(C)n(-c4ccc(OC)cc4)nc23)CC1", "% Inhibition @ 10 uM": -4.18}, {"compound": "Cc1nc(NC(=O)c2c(-c3ccccc3Cl)noc2C)sc1C", "% Inhibition @ 10 uM": -2.22}, {"compound": "COc1ccc2c(CNCC(C)c3ccccc3)c(C(=O)O)n(Cc3ccc(F)cc3)c2c1", "note": "(stereo not shown)", "% Inhibition @ 10 uM": 1.8}, {"compound": "CCOc1ccccc1C1CC(=O)NC(SC)=C1C#N", "note": "(stereo not shown)", "% Inhibition @ 10 uM": -3.32}, {"compound": "N#Cc1c(O)nc2ccccc2c1O", "% Inhibition @ 10 uM": -3.13}, {"compound": "Cc1c(C2C(C#N)=C(N)N(c3nnc(SC(C)C)s3)C3=C2C(=O)CCC3)cnn1C", "note": "(stereo not shown)", "% Inhibition @ 10 uM": -2.19}, {"compound": "CCc1ccc(Oc2nc3c(C)cccn3c(=O)c2/C=C(\\C#N)C(=O)OC)cc1", "% Inhibition @ 10 uM": 3.63}, {"compound": "CC(C)N(Cc1ccccc1)C(=O)C1CCN(c2ncnc3c2nc2n3CCCCC2)CC1", "% Inhibition @ 10 uM": -2.46}, {"compound": "COc1cc(/C=C2/NC(=O)N(c3ccc(Cl)cc3)C2=O)ccc1O", "% Inhibition @ 10 uM": -1.12}, {"compound": "COc1ccc(C2CC(=O)c3c([nH]c(C(=O)O)c3C)C2)cc1", "note": "(stereo not shown)", "% Inhibition @ 10 uM": -0.0508}, {"compound": "CCc1ccccc1NC(=O)Cn1cnc2scc(-c3ccc(OC)cc3)c2c1=O", "% Inhibition @ 10 uM": 6.57}, {"compound": "Cc1ccc(S(=O)(=O)NCC2CCC(C(=O)N3CC(C)CC(C)C3)CC2)cc1", "note": "(stereo not shown)", "% Inhibition @ 10 uM": -4.53}, {"compound": "Cc1nn2c(=O)/c(=C/c3ccc(Cl)c(Cl)c3)sc2nc1=O", "% Inhibition @ 10 uM": -5.2}, {"compound": "Cc1ccc(CCN2CC(C(=O)N3CCC4(CC3)OCCO4)CC2=O)cc1", "note": "(stereo not shown)", "% Inhibition @ 10 uM": 3.24}, {"compound": "Cc1ccc(-c2cc(NC(=O)c3ccc(OCC(C)C)cc3)on2)cc1", "% Inhibition @ 10 uM": 1.9}, {"compound": "Cc1sc(NC(=O)c2cc3nc(-c4cccs4)cc(C(F)(F)F)n3n2)c(C(N)=O)c1C", "% Inhibition @ 10 uM": 5.44}, {"compound": "CNCC(O)COc1ccc(C)cc1C", "note": "(stereo not shown)", "% Inhibition @ 10 uM": -1.86}, {"compound": "COc1ccc2c(c1)CC/C(=C\\c1ccc(Br)o1)C2=O", "% Inhibition @ 10 uM": 7.57}, {"compound": "COc1ccc2cc3cc(C(=O)N4CCC(Cc5ccccc5)CC4)oc3nc2c1", "% Inhibition @ 10 uM": -3.35}, {"compound": "COc1ccc(OC)c(CNC(=O)Cn2ccc3cc(S(=O)(=O)N4CCCC4)ccc32)c1", "% Inhibition @ 10 uM": -2.93}, {"compound": "Nc1c(-c2nc(-c3ccc4c(c3)OCO4)no2)nnn1-c1ccccc1", "% Inhibition @ 10 uM": 4.48}, {"compound": "CCOC(=O)C1CCCCN1Cc1ccco1", "note": "(stereo not shown)", "% Inhibition @ 10 uM": -1.86}, {"compound": "Cc1ccccc1-c1nn[nH]n1", "% Inhibition @ 10 uM": 2}, {"compound": "Fc1ccc(N2CCN(CC3CC4C=CC3C4)CC2)cc1", "note": "(stereo not shown)", "% Inhibition @ 10 uM": -2.95}, {"compound": "COc1ccccc1C(=O)NC1=NC(=O)CC(c2ccccc2F)N1", "note": "(stereo not shown)", "% Inhibition @ 10 uM": -2.65}, {"compound": "O=C(NC1CCCC1)c1csc2c1CCCC2", "% Inhibition @ 10 uM": -5.05}, {"compound": "CC1CC(=O)C2=C(C1)OC(N)=C(C#N)C2c1cccc(Cl)c1Cl", "note": "(stereo not shown)", "% Inhibition @ 10 uM": 3.54}, {"compound": "Cc1ccc2c(c1)c(-c1ccccc1)c(-c1ccccc1)n2CCC#N", "% Inhibition @ 10 uM": -0.582}, {"compound": "COc1ccc2cc(C(=O)Nc3ccc(Cl)cc3)sc(=O)c2c1OC", "% Inhibition @ 10 uM": 1.64}, {"compound": "CCOc1ccc(-c2cc(C)n3nc(C(=O)N(C)Cc4ccccc4)cc3n2)cc1", "% Inhibition @ 10 uM": 0.709}, {"compound": "c1cc(-c2nnn(CCOCCn3nnc(-c4ccncc4)n3)n2)ccn1", "% Inhibition @ 10 uM": 2.57}, {"compound": "O=C1NC(/C=C/c2ccccc2Cl)Nc2sc3c(c21)CCCC3", "note": "(stereo not shown)", "% Inhibition @ 10 uM": -3.85}, {"compound": "Cc1ccc(-c2cc(C(=O)N3CCOCC3)c3ccccc3n2)cc1", "% Inhibition @ 10 uM": 3.49}, {"compound": "Cc1ccc(N2CCN(S(=O)(=O)c3ccccc3)CC2)c(C)c1", "% Inhibition @ 10 uM": -2.67}, {"compound": "CCN(CC)CCNC(=O)C1CCCc2c1[nH]c1c(C(=O)O)cccc21", "note": "(stereo not shown)", "% Inhibition @ 10 uM": 3.96}, {"compound": "COc1cccc(C(=O)ON=C2C=CC(=O)C=C2)c1", "% Inhibition @ 10 uM": 0.146}, {"compound": "COc1ccc(CN2CCN(Cc3cccnc3)CC2)c(OC)c1OC", "% Inhibition @ 10 uM": -9.68}, {"compound": "O=C(CCCn1sc2ccccc2c1=O)NCc1cccc(Cl)c1", "% Inhibition @ 10 uM": -1.06}, {"compound": "COc1ccc(CCNC(=O)Cn2ccc3cc(S(=O)(=O)N4CCCC4)ccc32)cc1OC", "% Inhibition @ 10 uM": 4.14}, {"compound": "S=c1[nH]c(=S)c2c3c(sc2[nH]1)CCC3", "% Inhibition @ 10 uM": 85.2}, {"compound": "CC(CCc1ccccc1)NC(=O)C1CCN(c2nc3ccccc3n3cccc23)CC1", "note": "(stereo not shown)", "% Inhibition @ 10 uM": -1.08}, {"compound": "OC1CCN(C2CC3CCC2C3)CC1", "note": "(stereo not shown)", "% Inhibition @ 10 uM": -6.62}, {"compound": "COc1ccc(N2CCN(c3ccc(-n4cnnc4O)cc3)CC2)cc1", "% Inhibition @ 10 uM": 9.53}, {"compound": "CCOC(=O)N1CCC(NC(=O)Cn2ncc3ccc(C)cc32)CC1", "% Inhibition @ 10 uM": -1.11}, {"compound": "Brc1ccccc1CN1CCN(Cc2cccnc2)CC1", "% Inhibition @ 10 uM": -5.69}, {"compound": "Cc1cc2c(cc1C)C(c1cc3c(cc1Br)OCO3)CC(=O)N2", "note": "(stereo not shown)", "% Inhibition @ 10 uM": 10.6}]}]}
